Data taken from publication PMC4215718.
No constants are given. Whether binding was seen depends on the method and setting. In cells and extracts the contact can be indirect. Some results given as binding are weak or reduced against the parent protein; the word gives no strength. For some of these results: Where a sequence is shown, tags or fusion partners need not be part of it.

Amino acid sequences for entries named in this document (tags omitted).
UniProt Q13561: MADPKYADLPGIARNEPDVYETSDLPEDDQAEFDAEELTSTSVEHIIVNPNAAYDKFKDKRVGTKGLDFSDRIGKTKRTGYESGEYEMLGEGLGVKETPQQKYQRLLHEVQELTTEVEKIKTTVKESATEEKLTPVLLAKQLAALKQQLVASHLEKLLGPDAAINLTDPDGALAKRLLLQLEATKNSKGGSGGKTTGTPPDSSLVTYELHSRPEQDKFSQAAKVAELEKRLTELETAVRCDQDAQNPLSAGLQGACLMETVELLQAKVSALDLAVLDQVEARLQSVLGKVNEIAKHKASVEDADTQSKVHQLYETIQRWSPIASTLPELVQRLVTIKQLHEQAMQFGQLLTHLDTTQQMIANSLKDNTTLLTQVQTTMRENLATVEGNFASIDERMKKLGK
UniProt P04406: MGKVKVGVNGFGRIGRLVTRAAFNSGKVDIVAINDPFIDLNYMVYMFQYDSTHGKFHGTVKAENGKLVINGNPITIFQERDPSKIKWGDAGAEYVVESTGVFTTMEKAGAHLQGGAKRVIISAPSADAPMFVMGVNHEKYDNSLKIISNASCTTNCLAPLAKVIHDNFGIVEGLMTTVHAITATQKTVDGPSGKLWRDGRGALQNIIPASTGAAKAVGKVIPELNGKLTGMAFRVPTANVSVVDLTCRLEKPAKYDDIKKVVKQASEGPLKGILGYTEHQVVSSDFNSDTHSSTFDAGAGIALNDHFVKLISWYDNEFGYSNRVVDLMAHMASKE
UniProt Q13409: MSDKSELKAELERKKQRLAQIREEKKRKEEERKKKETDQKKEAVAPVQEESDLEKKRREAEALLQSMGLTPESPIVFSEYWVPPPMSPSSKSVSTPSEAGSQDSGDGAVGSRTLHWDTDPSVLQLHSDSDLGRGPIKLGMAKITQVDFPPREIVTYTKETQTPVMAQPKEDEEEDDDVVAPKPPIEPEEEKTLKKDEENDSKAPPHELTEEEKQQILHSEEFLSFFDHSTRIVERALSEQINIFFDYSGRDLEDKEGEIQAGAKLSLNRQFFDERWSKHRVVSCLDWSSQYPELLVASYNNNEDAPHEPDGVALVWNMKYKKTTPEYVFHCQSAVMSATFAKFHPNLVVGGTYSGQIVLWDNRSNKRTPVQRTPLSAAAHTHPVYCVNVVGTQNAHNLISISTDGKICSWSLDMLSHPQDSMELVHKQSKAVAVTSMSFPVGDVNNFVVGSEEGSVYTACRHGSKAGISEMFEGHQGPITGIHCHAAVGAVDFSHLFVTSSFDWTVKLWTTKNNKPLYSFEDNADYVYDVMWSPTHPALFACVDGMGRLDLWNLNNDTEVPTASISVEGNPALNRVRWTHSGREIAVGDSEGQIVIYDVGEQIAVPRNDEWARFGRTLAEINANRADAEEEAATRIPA
UniProt P63172: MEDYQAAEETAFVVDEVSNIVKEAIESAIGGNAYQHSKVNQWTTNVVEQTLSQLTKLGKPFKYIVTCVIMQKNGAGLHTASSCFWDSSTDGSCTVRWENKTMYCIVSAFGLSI
UniProt Q8WW35: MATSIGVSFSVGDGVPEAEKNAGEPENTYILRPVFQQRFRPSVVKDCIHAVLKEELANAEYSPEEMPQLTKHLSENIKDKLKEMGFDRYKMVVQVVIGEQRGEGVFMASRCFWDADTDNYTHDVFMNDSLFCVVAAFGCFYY
UniProt Q8WVS4: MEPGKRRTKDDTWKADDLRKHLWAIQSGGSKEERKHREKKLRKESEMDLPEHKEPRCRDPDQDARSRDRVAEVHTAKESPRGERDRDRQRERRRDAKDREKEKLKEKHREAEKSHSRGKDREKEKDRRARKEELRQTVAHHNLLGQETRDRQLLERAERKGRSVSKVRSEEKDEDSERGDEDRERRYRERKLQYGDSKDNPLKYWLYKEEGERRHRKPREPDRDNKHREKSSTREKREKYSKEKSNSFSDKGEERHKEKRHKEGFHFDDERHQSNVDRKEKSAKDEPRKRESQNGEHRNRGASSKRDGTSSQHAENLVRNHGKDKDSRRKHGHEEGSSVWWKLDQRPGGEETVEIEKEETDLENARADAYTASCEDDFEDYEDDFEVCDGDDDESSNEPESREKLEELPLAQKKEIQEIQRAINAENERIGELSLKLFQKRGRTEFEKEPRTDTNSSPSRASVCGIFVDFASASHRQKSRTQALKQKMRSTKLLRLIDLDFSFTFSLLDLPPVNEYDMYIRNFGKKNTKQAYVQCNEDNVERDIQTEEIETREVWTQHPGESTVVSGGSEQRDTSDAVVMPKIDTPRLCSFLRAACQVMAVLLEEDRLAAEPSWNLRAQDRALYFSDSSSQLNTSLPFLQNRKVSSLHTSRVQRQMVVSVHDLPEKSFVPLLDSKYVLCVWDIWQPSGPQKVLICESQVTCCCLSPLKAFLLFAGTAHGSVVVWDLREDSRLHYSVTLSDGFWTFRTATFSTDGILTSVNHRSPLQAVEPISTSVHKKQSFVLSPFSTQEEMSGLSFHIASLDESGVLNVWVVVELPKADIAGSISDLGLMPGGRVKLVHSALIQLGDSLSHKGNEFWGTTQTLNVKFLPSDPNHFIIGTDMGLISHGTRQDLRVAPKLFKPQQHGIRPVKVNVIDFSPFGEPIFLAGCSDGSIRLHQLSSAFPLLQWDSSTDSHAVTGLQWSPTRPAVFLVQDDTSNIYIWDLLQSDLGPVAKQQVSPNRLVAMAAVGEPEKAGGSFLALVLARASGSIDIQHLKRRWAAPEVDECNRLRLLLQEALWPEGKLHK

T1: mGFP–WDR34 (human), Q96EX3
T1 chain: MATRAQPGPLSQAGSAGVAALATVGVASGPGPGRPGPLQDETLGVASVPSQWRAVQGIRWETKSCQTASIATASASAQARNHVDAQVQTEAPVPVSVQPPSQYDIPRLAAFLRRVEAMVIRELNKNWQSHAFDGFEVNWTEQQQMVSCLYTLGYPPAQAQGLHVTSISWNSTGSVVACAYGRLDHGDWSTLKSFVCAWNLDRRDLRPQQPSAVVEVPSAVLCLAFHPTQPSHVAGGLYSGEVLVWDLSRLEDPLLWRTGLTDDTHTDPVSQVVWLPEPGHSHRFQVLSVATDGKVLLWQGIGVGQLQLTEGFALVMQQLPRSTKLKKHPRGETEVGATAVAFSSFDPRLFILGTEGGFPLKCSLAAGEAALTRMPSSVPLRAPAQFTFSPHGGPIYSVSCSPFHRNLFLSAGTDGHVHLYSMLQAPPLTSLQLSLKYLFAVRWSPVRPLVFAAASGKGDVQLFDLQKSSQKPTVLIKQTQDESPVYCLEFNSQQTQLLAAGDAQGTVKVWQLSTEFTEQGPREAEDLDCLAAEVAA

B1: endogenous WDR34, Q96EX3 1-536 (protein)
chain: T1 chain
B2: LIS1 (protein, UniProt P43034 1-410)
chain: MVLSQRQRDELNRAIADYLRSNGYEEAYSVFKKEAELDVNEELDKKYAGLLEKKWTSVIRLQKKVMELESKLNEAKEEFTSGGPLGQKRDPKEWIPRPPEKYALSGHRSPVTRVIFHPVFSVMVSASEDATIKVWDYETGDFERTLKGHTDSVQDISFDHSGKLLASCSADMTIKLWDFQGFECIRTMHGHDHNVSSVAIMPNGDHIVSASRDKTIKMWEVQTGYCVKTFTGHREWVRMVRPNQDGTLIASCSNDQTVRVWVVATKECKAELREHEHVVECISWAPESSYSSISEATGSETKKSGKPGPFLLSGSRDKTIKMWDVSTGMCLMTLVGHDNWVRGVLFHSGGKFILSCADDKTLRVWDYKNKRCMKTLNAHEHFVTSLDFHKTAPYVVTGSVDQTVKVWECR
B3: NudCD3 (protein, UniProt Q8IVD9 1-361)
chain: METGAAELYDQALLGILQHVGNVQDFLRVLFGFLYRKTDFYRLLRHPSDRMGFPPGAAQALVLQVFKTFDHMARQDDEKRRQELEEKIRRKEEEEAKTVSAAAAEKEPVPVPVQEIEIDSTTELDGHQEVEKVQPPGPVKEMAHGSQEAEAPGAVAGAAEVPREPPILPRIQEQFQKNPDSYNGAVRENYTWSQDYTDLEVRVPVPKHVVKGKQVSVALSSSSIRVAMLEENGERVLMEGKLTHKINTESSLWSLEPGKCVLVNLSKVGEYWWNAILEGEEPIDIDKINKERSMATVDEEEQAVLDRLTFDYHQKLQGKPQSHELKVHEMLKKGWDAEGSPFRGQRFDPAMFNISPGAVQF

Biological target: T1, mGFP–WDR34 (human), Q96EX3
Test: co-IP; GFP-trap of lysates of serum-starved (24 h) RPE1 cells stably expressing mGFP or mGFP–WDR34; 10 mM Tris-HCl pH 7.4, 50 mM NaCl, 0.5 mM EDTA, 1.0% IGEPAL; 90 min at 4°C; immunoblot of input, unbound and bound fractions
Conditions: remark: other sources report otherwise

| binding | Molecule |
| --- | --- |
| no binding | B1 |

Biological target: mGFP–WDR34 (human) (UniProt Q96EX3)
Test: as above
Conditions: not given

| binding | Molecule |
| --- | --- |
| no binding | p150^Glued (from UniProt Q14203-1 1-1278) |
| no binding | p50^dynamitin (from UniProt Q13561 1-401) |
| no binding | GAPDH (from UniProt P04406 1-335) |
| no binding | dynein-1 intermediate chain, IC74 (from UniProt Q13409 1-638) |
| binds | Tctex-1 (from UniProt P63172 1-113) |
| binds | TCTEX1D2 (from UniProt Q8WW35 1-142) |
| binds | WDR60 (from UniProt Q8WVS4 1-1066) |
| no binding | B2 |
| binds | B3 |
